Our source for the cytotoxicity call and growth inhibition call values is the antibiotic and cytotoxicity screens of Wong et al. (2023).

For one test, the system named is HSkMC. As to the kind of experiment: cytotoxicity call (relative viability < 0.9). The note with it: 10 µM.
Another test has as its system HepG2. As to the kind of experiment: cytotoxicity call (relative viability < 0.9). The note with it: 10 µM.
Another test concerns S. aureus RN4220. The test can be described thus: growth inhibition call (relative growth <= 0.2). The note with it: 50 µM.

The structures appear in SMILES notation. The list shows a part of the results.

In the case of `COc1ccc(NC(=O)N(C)C[C@@H]2OCCCC[C@@H](C)Oc3ccc(NC(=O)Nc4ccc(F)cc4)cc3C(=O)N([C@@H](C)CO)C[C@@H]2C)cc1`, the cytotoxicity call with HSkMC and with HepG2 was “inactive” each time. The growth inhibition call with S. aureus RN4220 is “inactive”.

Regarding `C[C@H](CO)N1C[C@H](C)[C@@H](CN(C)C(=O)Nc2ccccc2)Oc2ccc(NC(=O)CCCCCC(=O)Nc3ccccc3N)cc2C1=O`, the cytotoxicity call in the test on HSkMC and in the test with HepG2 was “inactive” throughout. Also, the growth inhibition call with S. aureus RN4220 is “inactive”.

For `C[C@@H]1CN([C@@H](C)CO)C(=O)c2cc(NS(=O)(=O)c3ccc(F)cc3)ccc2O[C@H]1CN(C)S(=O)(=O)c1cccs1`, the cytotoxicity call in the test with HSkMC and in the test on HepG2 was “inactive” in each case. For the same molecule, in the test with S. aureus RN4220, the growth inhibition call was “inactive”.

For `Cc1noc(C)c1S(=O)(=O)N(C)C[C@H]1Oc2ccc(NC(=O)NC(C)C)cc2CC(=O)N([C@H](C)CO)C[C@H]1C`, the cytotoxicity call with HSkMC and with HepG2 was “inactive” in each case. Moreover, in the test with S. aureus RN4220, the growth inhibition call is “inactive”.

For the molecule `Cc1ccc(S(=O)(=O)Nc2ccc3c(c2)C(=O)N([C@H](C)CO)C[C@@H](C)[C@@H](CN(C)Cc2ccc(C(=O)O)cc2)OCCCC[C@@H](C)O3)cc1`, the cytotoxicity call in the test on HSkMC and with HepG2 was “inactive” throughout. In addition, the growth inhibition call in the test with S. aureus RN4220 is “inactive”.

Take `CN(Cc1ccc(C(C)(C)C)cc1)Cc1cccc2ccccc12.Cl`: the cytotoxicity call in the test on HSkMC and in the test with HepG2 was “inactive” in each case. The growth inhibition call in the test with S. aureus RN4220 was “inactive”.

Consider `N[C@@H]1CC[C@@H](CCn2cc(C3CCCCC3)nn2)O[C@H]1CO`, for which the cytotoxicity call in the test with HSkMC and with HepG2 was “inactive” in each case. The growth inhibition call in the test with S. aureus RN4220 is “inactive”.

On to `COc1ccc(S(=O)(=O)N(C)C[C@@H]2OCCCC[C@@H](C)Oc3ccc(NC(=O)Nc4ccc(C(F)(F)F)cc4)cc3C(=O)N([C@@H](C)CO)C[C@H]2C)cc1`, for which the cytotoxicity call with HSkMC and with HepG2 was “inactive” throughout. For the same molecule, the growth inhibition call in the test on S. aureus RN4220 is “inactive”.

Consider `CC(C)NC(=O)Nc1ccc2c(c1)C(=O)N([C@H](C)CO)C[C@@H](C)[C@@H](CN(C)S(=O)(=O)c1cccs1)O2`, for which the cytotoxicity call in the test with HSkMC and with HepG2 was “inactive” each time. Also, the growth inhibition call in the test with S. aureus RN4220 was “inactive”.

In the case of `CCCCc1oc2ccccc2c1C(=O)c1cc(I)c(OCCN(CC)CC)c(I)c1`, the cytotoxicity call with HSkMC and in the test on HepG2 was “active” in each case. Further, the growth inhibition call in the test on S. aureus RN4220 is “inactive”.

As to `O=c1c(-c2ccc(O)cc2)coc2cc(O)ccc12`, the cytotoxicity call with HSkMC and in the test with HepG2 was “inactive” in each case. Also, the growth inhibition call in the test on S. aureus RN4220 was “inactive”.

As to `Cc1c(N(C)CS(=O)(=O)[O-])c(=O)n(-c2ccccc2)n1C.[Na+]`, the cytotoxicity call with HSkMC and with HepG2 was “inactive” throughout. In addition, the growth inhibition call in the test on S. aureus RN4220 is “inactive”.

For `CCC1(c2ccccc2)NC(=O)N(C)C1=O` (stereo not drawn), the cytotoxicity call with HSkMC and with HepG2 was “inactive” each time. For the same molecule, the growth inhibition call in the test with S. aureus RN4220 was “inactive”.

As for `CCCC#Cc1cnc2c(c1)C(=O)N([C@H](C)CO)C[C@@H](C)[C@@H](CN(C)S(=O)(=O)c1cn(C)cn1)O2`, the cytotoxicity call in the test with HSkMC and in the test with HepG2 was “inactive” in each case. For the same molecule, the growth inhibition call in the test on S. aureus RN4220 was “inactive”.

Take `C[C@@H]1CN([C@H](C)CO)C(=O)Cc2cc(NC(=O)c3ccncc3)ccc2O[C@@H]1CN(C)Cc1ccc(Oc2ccccc2)cc1`: the cytotoxicity call with HSkMC and with HepG2 was “inactive” each time. Further, in the test with S. aureus RN4220, the growth inhibition call was “inactive”.

In the case of `COc1ccc(S(=O)(=O)Nc2cccc3c2O[C@H](CN(C)S(=O)(=O)c2ccc(C)cc2)[C@H](C)CN([C@@H](C)CO)C3=O)cc1`, the cytotoxicity call in the test with HSkMC and in the test with HepG2 was “inactive” throughout. For the same molecule, in the test with S. aureus RN4220, the growth inhibition call is “inactive”.

Turning to `C[C@H]1CCCCO[C@H](CN(C)Cc2ccccc2)[C@@H](C)CN([C@@H](C)CO)C(=O)c2cc(NC(=O)c3ccncc3)ccc2O1`, the cytotoxicity call in the test on HSkMC and with HepG2 was “inactive” throughout. Moreover, the growth inhibition call with S. aureus RN4220 was “inactive”.

Regarding `O=C(C[C@@H]1C=C[C@H](NC(=O)CN2CCOCC2)[C@@H](CO)O1)NCCc1ccccc1`, the cytotoxicity call with HSkMC and in the test with HepG2 was “inactive” in each case. Besides, the growth inhibition call with S. aureus RN4220 is “inactive”.

With `O=C(C[C@H]1C[C@@H]2c3cc(NC(=O)c4ccc5c(c4)OCO5)ccc3O[C@@H]2[C@@H](CO)O1)NCCc1ccccc1`, the cytotoxicity call in the test with HSkMC and in the test with HepG2 was “inactive” throughout. Also, the growth inhibition call in the test on S. aureus RN4220 was “inactive”.

`C[C@@H]1CN([C@@H](C)CO)C(=O)Cc2cc(NC(=O)CCN3CCOCC3)ccc2O[C@@H]1CN(C)S(=O)(=O)c1ccccc1`: the cytotoxicity call with HSkMC and in the test on HepG2 was “inactive” each time. In addition, the growth inhibition call in the test with S. aureus RN4220 is “inactive”.

As for `COc1ccc(NC(=O)Nc2ccc3c(c2)C(=O)N([C@H](C)CO)C[C@@H](C)[C@@H](CN(C)S(=O)(=O)c2ccc(OC)cc2)OCCCC[C@H](C)O3)cc1`, the cytotoxicity call in the test with HSkMC and in the test on HepG2 was “inactive” each time. In the test on S. aureus RN4220, the growth inhibition call is “inactive”.

As to `O=C(C[C@@H]1C=C[C@H](NC(=O)c2ccncc2)[C@H](CO)O1)NCc1ccncn1`, the cytotoxicity call in the test on HSkMC (human skeletal muscle cells) and in the test with HepG2 was “inactive” throughout. The growth inhibition call in the test on S. aureus RN4220 is “inactive”.

Consider `COCC(=O)N(C)C[C@H]1Oc2cc(C#CC(C)(C)O)ccc2S(=O)(=O)N([C@@H](C)CO)C[C@@H]1C`, for which the cytotoxicity call with HSkMC and in the test with HepG2 was “inactive” in each case. Besides, in the test on S. aureus RN4220, the growth inhibition call is “inactive”.

Turning to `COc1ccc2nc3cc(Cl)ccc3c(Nc3cc(CN4CCCC4)c(O)c(CN4CCCC4)c3)c2n1.O=P(O)(O)O.O=P(O)(O)O.O=P(O)(O)O.O=P(O)(O)O`, the cytotoxicity call in the test with HSkMC is “inactive”. In the test with HepG2, the cytotoxicity call was “active”. The growth inhibition call in the test with S. aureus RN4220 is “inactive”.

Regarding `COCCN1C[C@H]2COC[C@@H](C(=O)N3CCCO3)[C@H]2C1`, the cytotoxicity call in the test with HSkMC and in the test with HepG2 was “inactive” in each case. For the same molecule, the growth inhibition call with S. aureus RN4220 is “inactive”.

For `CO[C@@H]1CN(C)C(=O)c2cc(NC(=O)Nc3cccc(Cl)c3)ccc2OC[C@H](C)N(C(=O)Nc2c(C)noc2C)C[C@@H]1C`, the cytotoxicity call with HSkMC and in the test with HepG2 was “inactive” each time. In the test with S. aureus RN4220, the growth inhibition call is “inactive”.
